This is one part of the list. At the low end of the ranking the order means little.

For this experiment, the target named is SIX1 homeodomain (reference allele) (UniProt Q15475). The experiment in a line: universal protein binding microarray. As to conditions: Universal all-10-mer PBM (8x60K, AMADID 030236), 300 nM GST-tagged protein, Alexa Fluor 488 anti-GST; buffer, salt, pH and temperature not stated; high values mean tight binding; most listed sequences are background and not binding sites; double strand, one strand shown.
Turning to ATTCCTAA, the binding signal turned out to be 0.0604 E-score.
For AGGCTAAG the value was -0.177 E-score; for AGCGGGCG, -0.163 E-score; for CCCGCGGG, 0.175 E-score.
For TGCGTACA the value was -0.122 E-score; for CCCCATGA, -0.0463 E-score; for AGCGGCGA, -0.136 E-score.
CCAACCAA: the binding signal was -0.0738 E-score.
Take GGACCGCC: the binding signal was -0.224 E-score.
As for GGGTAGTA, the binding signal was found to be 0.145 E-score.
Consider GAGTGTGA, for which the binding signal was 0.0623 E-score.
ACGGTTCG: the binding signal was -0.234 E-score.
As for CCGAGACC, the binding signal stood at 0.0675 E-score.
In the case of ATAATTAG, the binding signal stood at 0.068 E-score.
As for GAGAAGTA, the binding signal worked out at 0.109 E-score.
On to ATAGGGAC, for which the binding signal came out at 0.101 E-score.
For CTGATGAC the value was -0.00919 E-score.
As for GAAACACC, the binding signal stood at 0.189 E-score.
In the case of CAACAAAG, the binding signal was -0.314 E-score.
In the case of CGATTGAA, the binding signal is -0.158 E-score.
As for ATTCCTTC, the binding signal is -0.0876 E-score.
Consider ATCATACG, for which the binding signal is 0.269 E-score.
On to CTACTGGC, for which the binding signal is -0.266 E-score.
Regarding GGTCTTCA, the binding signal was -0.0923 E-score.
ACACCTAA: the binding signal was determined as 0.261 E-score.
Consider AATCAGAT, for which the binding signal turned out to be 0.184 E-score.
With CAATCAAG, the binding signal is -0.0447 E-score.
On to ATATTCAG, for which the binding signal turned out to be 0.164 E-score.
For AAGAGGGT, the binding signal is -0.0551 E-score.
CATCCTGC: the binding signal was -0.0819 E-score.
On to TGAGATCA, for which the binding signal was determined as 0.33 E-score.
As to ATGCACAA, the binding signal was -0.0205 E-score.
For the sequence ACCGCTTA, the binding signal is -0.116 E-score.
As to TGTATAAA, the binding signal is 0.138 E-score.
Consider AATCGCCA, for which the binding signal is -0.0805 E-score.
As to ATCACATG, the binding signal is 0.269 E-score.
As to CATTAAGC, the binding signal is -0.0884 E-score.
For GGTGGGAA the value was -0.00853 E-score; for ACCACGCT, -0.0225 E-score.
The result for CAAGTGCC reads -0.388 E-score.
The result for TAAGGTGA reads 0.0628 E-score; that for ACCCCGCT, 0.262 E-score; that for CCGCCGAA, -0.0354 E-score.
CGTGTGCC: the binding signal worked out at 0.0454 E-score.
Regarding GCCCCCAA, the binding signal is -0.332 E-score.
For the sequence AAACACAA, the binding signal was -0.303 E-score.
Regarding ATTTCCGC, the binding signal is -0.147 E-score.
The result for CGGATCGC reads 0.395 E-score; that for AACCCATT, -0.128 E-score; that for ACGTACGT, -0.121 E-score.
In the case of ATTACCTG, the binding signal is -0.187 E-score.
Consider ACACGTCC, for which the binding signal was -0.046 E-score.
Turning to CCTTTTAC, the binding signal was -0.127 E-score.
In the case of AGATTAAA, the binding signal was -0.0404 E-score.
For the sequence ATATACAA, the binding signal is 0.27 E-score.
CCAAGTAA: the binding signal is -0.161 E-score.
ATGAAGTG: the binding signal was -0.122 E-score.
With ATGCGTGA, the binding signal came out at 0.161 E-score.
ACACTACT: the binding signal came to 0.0748 E-score.
For TACCGGGA, the binding signal amounted to 0.157 E-score.
On to CACACTCC, for which the binding signal was -0.0875 E-score.
For CTATGGCC, the binding signal was -0.305 E-score.
Turning to GATACGGC, the binding signal turned out to be 0.454 E-score.
Take ACACACTC: the binding signal turned out to be 0.0334 E-score.
With ACGATCTC, the binding signal is 0.189 E-score.
On to AATATCAG, for which the binding signal was 0.225 E-score.
For the sequence ACCAGGGT, the binding signal came out at 0.189 E-score.
In the case of GGTGGAGA, the binding signal was -0.117 E-score.
In the case of CCTCCTTC, the binding signal is -0.0167 E-score.
For ATCTAACC, the binding signal was 0.0231 E-score.
For TGTCCAAA, the binding signal is -0.118 E-score.
In the case of TCAGTCCA, the binding signal is -0.111 E-score.
The result for AAACCTGG reads -0.0842 E-score.
GAAGGTAA: the binding signal was determined as 0.0475 E-score.
On to CACCAAAC, for which the binding signal is -0.136 E-score.
Regarding AAGGTTCT, the binding signal amounted to 0.0584 E-score.
In the case of CAACATCG, the binding signal was -0.0378 E-score.
Regarding AGCAGTAA, the binding signal is -0.0718 E-score.
Consider CAATCCTG, for which the binding signal was found to be 0.0183 E-score.
For the sequence AGCCTCAG, the binding signal was -0.262 E-score.
For CCTATCGA the value was 0.122 E-score; for GGGTACAC, 0.236 E-score.
With CCGCCAGA, the binding signal came out at 0.00592 E-score.
For GGGTGAGA the value was 0.172 E-score; for ATGTGGTC, -0.0279 E-score; for AGGATTAA, 0.243 E-score.
In the case of GCGCGACA, the binding signal is -0.242 E-score.
As for GCGATGAC, the binding signal was determined as 0.0291 E-score.
For CACGATGC the value was -0.031 E-score; for CACATCGG, 0.044 E-score; for ATGGATCG, 0.345 E-score.
With GCAACCCA, the binding signal was -0.0632 E-score.
Take TGGGATAA: the binding signal came out at 0.176 E-score.
For the sequence AGTACGCA, the binding signal is -0.267 E-score.
As to CACCTATC, the binding signal turned out to be 0.266 E-score.
Regarding ACTTAGAA, the binding signal was -0.0764 E-score.
As to CACACGAC, the binding signal was -0.214 E-score.
For CCCATCGG, the binding signal was found to be 0.0666 E-score.
As to ACACTTAG, the binding signal was -0.0202 E-score.
For the sequence CTCCATTC, the binding signal was -0.0869 E-score.
With TAAGTCAA, the binding signal is -0.243 E-score.
With GAGCGGTA, the binding signal is 0.0188 E-score.
For AGGACATG the value was 0.142 E-score; for GACTTATA, -0.023 E-score.
On to CTCGTAGA, for which the binding signal was -0.0714 E-score.
On to AAATGTAC, for which the binding signal is -0.0169 E-score.
As for ACTCAGTC, the binding signal was -0.169 E-score.
ACTAGCGG: the binding signal is -0.111 E-score.
As for CTTGTCAA, the binding signal was -0.183 E-score.
For CTAGGGAG, the binding signal was -0.145 E-score.
With GAGGACTA, the binding signal was -0.13 E-score.
Consider GACATGTA, for which the binding signal turned out to be 0.0659 E-score.
As to CCTCCAGA, the binding signal amounted to 0.0547 E-score.
For TAAATTTA the value was 0.0693 E-score.
The result for ACGTGGTA reads 0.0605 E-score.
AGGGACGC: the binding signal is -0.289 E-score.
As to AGACTGTG, the binding signal was -0.181 E-score.
For CCCGGGCG the value was -0.0482 E-score.
Take TCACGGAA: the binding signal is -0.0712 E-score.
Turning to ACATTCGT, the binding signal was -0.133 E-score.
As for ACGGTACA, the binding signal is -0.127 E-score.
Turning to AAGTAGGC, the binding signal is -0.101 E-score.
For AGGAGCCC, the binding signal is -0.0374 E-score.
Consider TCAGGAAA, for which the binding signal is -0.117 E-score.
For AAATTCGC, the binding signal is -0.132 E-score.
With AGATTGTC, the binding signal was -0.0318 E-score.
With TCGAACGA, the binding signal was -0.00426 E-score.
Take CGATTGGA: the binding signal was found to be 0.107 E-score.
With AATTCGTA, the binding signal is -0.134 E-score.
Turning to ACAGCCAC, the binding signal is -0.00568 E-score.
The result for GGGGGTAC reads 0.245 E-score.
Take CTCTCGCA: the binding signal is -0.181 E-score.
For CCTGATCG, the binding signal came out at 0.197 E-score.
For the sequence TATAAATA, the binding signal worked out at 0.16 E-score.
Turning to CTCGAAAG, the binding signal was -0.0397 E-score.
Turning to ATAACCCA, the binding signal is 0.0767 E-score.
For ACATTCCG, the binding signal is -0.000615 E-score.
In the case of TCCTGTCA, the binding signal was -0.0539 E-score.
ACCGTCCT: the binding signal was determined as 0.0188 E-score.
For the sequence AATACGCG, the binding signal is 0.115 E-score.
Regarding AGTATTAT, the binding signal is 0.328 E-score.
For CCTCGACA the value was -0.0313 E-score; for CACAACTC, -0.105 E-score.
For CTTCCGAC, the binding signal is -0.132 E-score.
As to ATAACAGC, the binding signal was determined as 0.0395 E-score.
Consider AACCCTGA, for which the binding signal came out at 0.041 E-score.
As for ATGTAGGC, the binding signal is -0.0622 E-score.
Take GTGAGGTA: the binding signal was -0.0175 E-score.
The result for CCATACAA reads 0.125 E-score; that for GCTCAACA, -0.0238 E-score.
In the case of ATCGTTAA, the binding signal amounted to 0.126 E-score.
As to ACCTTTAA, the binding signal is -0.0535 E-score.
Regarding AGCACACT, the binding signal turned out to be 0.0305 E-score.
The result for ATGTACGC reads -0.0875 E-score; that for CCCTACTA, -0.00275 E-score.
Consider TTGATCAA, for which the binding signal is -0.00997 E-score.
In the case of AAAAGTAC, the binding signal was -0.158 E-score.
Consider GTCACTCA, for which the binding signal is -0.0616 E-score.
Take CTCACAAG: the binding signal turned out to be 0.0536 E-score.
Regarding CTTGTTTA, the binding signal is -0.0582 E-score.
Turning to TTAGCCAA, the binding signal was -0.21 E-score.
For CGCCAGAG the value was -0.324 E-score; for AAAGAGTG, -0.192 E-score; for GATGATCC, 0.454 E-score.
ACACGAAC: the binding signal was -0.14 E-score.
On to CAAGGTTA, for which the binding signal was -0.12 E-score.
With AGGTTTCC, the binding signal is -0.221 E-score.
On to CCGAGTAA, for which the binding signal is -0.0135 E-score.
Take GTACGGAC: the binding signal was -0.226 E-score.
For the sequence AGCCCAGC, the binding signal is -0.157 E-score.
As for GAAGACAA, the binding signal was -0.054 E-score.
Turning to TGGTACCA, the binding signal is -0.176 E-score.

The values are drawn from paper PMC10668032.
